Paper PMC6919601, “Identification of Plasmodium dipeptidyl aminopeptidase allosteric inhibitors by high throughput screening” (PLoS ONE, 2019)
Hit rate of the full screen: of about 110,000 compounds, about 230 (0.21%) showed an effect of 50% or more. This is one part of the list.

Target: DPAP1 (Plasmodium falciparum, UniProt Q8IIJ9)
Assay: primary screen, percent inhibition; read by cleavage of a fluorogenic dipeptide substrate; higher = more effect of the substance
Design: species or system P. falciparum D10 trophozoite lysates; single well
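Note: 30 min substrate incubation versus DMSO and 10 µM JCP410 controls.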

Sequence of DPAP1 (Q8IIJ9 whole entry, looked up): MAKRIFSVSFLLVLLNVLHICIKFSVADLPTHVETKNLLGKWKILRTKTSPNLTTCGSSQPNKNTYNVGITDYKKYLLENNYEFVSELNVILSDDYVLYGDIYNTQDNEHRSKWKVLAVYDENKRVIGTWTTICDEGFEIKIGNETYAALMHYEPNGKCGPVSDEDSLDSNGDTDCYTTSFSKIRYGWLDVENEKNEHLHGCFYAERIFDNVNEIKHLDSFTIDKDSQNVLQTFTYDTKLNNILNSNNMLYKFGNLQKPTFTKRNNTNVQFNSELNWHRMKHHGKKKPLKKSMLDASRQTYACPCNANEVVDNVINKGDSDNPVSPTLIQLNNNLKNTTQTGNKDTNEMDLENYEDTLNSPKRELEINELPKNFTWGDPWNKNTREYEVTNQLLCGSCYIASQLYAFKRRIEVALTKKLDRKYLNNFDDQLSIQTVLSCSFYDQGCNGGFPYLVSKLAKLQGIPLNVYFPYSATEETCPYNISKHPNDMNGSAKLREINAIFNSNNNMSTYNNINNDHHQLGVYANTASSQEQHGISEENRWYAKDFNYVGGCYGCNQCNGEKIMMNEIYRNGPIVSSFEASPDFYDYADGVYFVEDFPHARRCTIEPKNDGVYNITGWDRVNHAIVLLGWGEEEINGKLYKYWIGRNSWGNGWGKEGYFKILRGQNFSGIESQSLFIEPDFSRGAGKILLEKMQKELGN

SMILES	% Inhibition @ 10 uM
O=C1C2C3C=CC(C3)C2C(=O)N1CNc1ccccc1 (centres unmarked)	-4.68%
Cc1ccc(CCNC(=O)CN(C)S(=O)(=O)c2cccc3cccnc23)cc1	-0.692%
N#CCc1ccc(NC(=O)c2ccccc2Br)cc1	-3.09%
CCc1nn(CC(=O)NCc2cccc(OC)c2)c(=O)c2cc3sc(C)cc3n12	3.4%
CCc1nc2ccc(C(=O)NCCc3ccco3)cc2nc1CC	3.9%
CCCC(=O)c1c(O)nc2cccc3c2c1-c1ccccc1C3=O	3.05%
CCOCCCNCc1c(C(=O)O)c(C)n(Cc2ccccc2F)c1C	-5.49%
Cc1ccsc1CN1CCCC(O)C1 (centres unmarked)	-3.56%
Clc1ccc(N2N=C(c3cccs3)CC2c2ccco2)cc1 (centres unmarked)	2.22%
Cc1ccccc1Cn1nc(C)c(NC(=O)c2cc(-c3ccco3)on2)c1C	-7.85%
CC1CCN(S(=O)(=O)c2ccc(NC(=O)C(c3ccccc3)c3ccccc3)cc2)CC1	0.0974%
Fc1ccc(CN2CCN(Cc3ccc4ccccc4c3)CC2)cc1	7.1%
COc1cc(OC)cc(C(=O)Nc2sc3c(c2C(N)=O)CCCCCC3)c1	5.24%
O=C(NCc1ccncc1)c1cccc(Cn2cc(Br)cn2)c1	-1.33%
Cc1ccc(S(=O)(=O)c2nc(S(C)(=O)=O)sc2NCC(C)C)cc1	-2.25%
Nc1c(-c2nc(-c3ccccc3F)no2)nnn1-c1ccccc1	5.47%
COc1ccc2[nH]c(C)c(CCNCc3ccccc3F)c2c1	-12.9%
CCN(CC)CCCOc1ccc(F)cc1	2.26%
CNC(=O)/C(=C/c1ccco1)NC(=O)c1ccc(Cl)cc1Cl	-1.44%
CCOC(=O)c1c(S(=O)(=O)NCCN2CCCCCC2)c(C)n(C)c1C	4.2%
Cc1cc(N2C(=O)C3CCCN3C2c2ccccc2)no1 (centres unmarked)	2.9%
Cc1ccc(N(CC(=O)Nc2cccc3ccccc23)S(C)(=O)=O)c(C)c1	5.82%

SMILES	% Inhibition @ 10 uM
O=C1CC(N2CCN(c3ccccn3)CC2)C(=O)N1c1ccc(Cl)cc1 (centres unmarked)	-6.62%
CC1CCCCN1C(=O)c1ccc([N+](=O)[O-])o1 (centres unmarked)	4.22%
CC1=C(C(=O)OCc2ccccc2)C(c2cccc(Cl)c2)C2=C(O)CCCC2=N1 (centres unmarked)	2.22%
CC1(C)Cc2ccccc2C(/C=C(\O)c2ccccc2)=N1	-3.8%
Cc1ccc(S(=O)(=O)N2CCN(C(=O)CSc3nc4cc(Cl)ccc4s3)C2)cc1	40.8%
CCCOc1ccc(Cc2nnn(CC(=O)O)n2)cc1	-2.15%
Cc1cc(C)c2c(n1)sc1c(SCc3ccccc3)nc(C)nc12	-1.47%
CN(C)c1ncnc2c1cnn2-c1ccc(F)cc1	-0.0781%
O=C(NCc1ccc(F)cc1)c1ccc(CS(=O)(=O)Cc2ccc(Cl)cc2)o1	-4.97%
CCN1CCN(CCCNC(=O)c2cc3c(O)nc4ccc(C)cc4c3s2)CC1	4.41%
CSc1nc(O)c2c(n1)-c1ccccc1CC21CCCC1	-4.8%
COc1ccc(CCNc2nc3c(-c4ccccc4)nnn3c3ccccc23)cc1OC	0.44%
CCOC(=O)C1=C(C)NC(=O)NC1c1ccc(-c2ccccc2)cc1 (centres unmarked)	-0.582%
O=C1CC(c2ccccc2C(F)(F)F)C2=C(CC(c3ccc(F)cc3)CC2=O)N1 (centres unmarked)	3.67%
Cc1cc(NC(=O)CSc2nc3ccccc3c3nc(CCc4c(C)n[nH]c4C)nn23)[nH]n1	4.33%
CCCCSCCCNC(=O)c1ccc(CNS(=O)(=O)c2ccc(F)cc2)cc1	6.95%
C1CN(C2C3CC4CC(C3)CC2C4)CCO1 (centres unmarked)	-4.94%
COc1cccc(C2C(C#N)=C(N)Oc3[nH]c(-c4ccccc4)nc32)c1 (centres unmarked)	-1.44%
CN(C)CC(=O)Nc1cc(N(C)C)nc2ccccc12	2.6%
CCCCN(C)CCNC(=O)c1cnn2c(O)c(Cc3ccccc3F)c(C)nc12	-5.52%
Cc1ccc(-c2nc(NCCCN(C)C)c3ccccc3n2)cc1	-1.33%
O=C(NCc1ccc2c(c1)OCO2)c1ccc(C(=O)NCc2ccc3c(c2)OCO3)cc1	-10.1%

SMILES	% Inhibition @ 10 uM
COc1ccc(C(=O)Nc2ccc(Br)cc2C)c(OC)c1	-6.44%
COc1ccc(-c2noc(CNC(=O)C34CC5CC(CC(C5)C3)C4)n2)cc1	-1.22%
O=C(CCC1CCCC1)Nc1ccc(C(=O)O)cc1	1.19%
Cc1ccc2c(c1)cc1c(=O)n(CC(=O)NCCCN3CCCC3=O)nc(C)n12	1.68%
Cc1ccc(NC(=O)c2cc3nc(C(F)F)cc(C(F)F)n3n2)cc1	2.4%
COc1cccc(NC(=O)C2C3C=CC(O3)C2C(=O)O)c1 (centres unmarked)	3.69%
CN1CCN(S(=O)(=O)c2ccc(Sc3nc4ccccc4[nH]3)c3nsnc23)CC1	-6.04%
COc1cc(OC)cc(C(=O)Nc2c(Cl)cccc2Cl)c1	1.64%
Oc1c(Br)cc(/C=N/n2c(S)nnc2-c2ccccc2)c(O)c1Br	-2.65%
O=C(NCCc1ccccc1)c1ccccc1NC(=O)C1CC=CCC1C(=O)O (centres unmarked)	-2.76%
COc1ccccc1NC(=O)c1c(N)sc2c1CCC(C)C2 (centres unmarked)	-4.89%
COc1cc(C2NC(=O)NC(C)=C2C(=O)OCC2CCCCC2)ccc1O (centres unmarked)	4.35%
CCN1CCN(C2CCC(C)CC2)CC1 (centres unmarked)	0.162%
O=C(c1cc2c(s1)-c1ccc(Cl)cc1S(=O)(=O)C2)N1CCCCC1c1cccnc1 (centres unmarked)	-2.45%
O=C(/C=C/c1ccco1)c1ccc2c(c1)OCCO2	0.131%
CCOc1ccccc1NC1=C(Cl)C(=O)N(c2cccc(C)c2)C1=O	9.33%
Cc1ccc(C)c(CN2CCCCC2CO)c1 (centres unmarked)	3.47%
O=C(NCC1CCCO1)c1ccc(COc2ccccc2Br)cc1 (centres unmarked)	1.7%
CCc1ccc(C2C(C#N)=C(N)Oc3[nH]nc(-c4cccs4)c32)cc1 (centres unmarked)	-0.968%
CCOC(=O)N1CCN(C(=O)c2ccc(CS(=O)(=O)c3ccc(OC)cc3)o2)CC1	1.93%
CC(C)Cc1ccc(C(C)C(=O)Nc2ncccn2)cc1 (centres unmarked)	-1.5%
